Experimental data reported in PubChem BioAssay AID686978 (National Center for Advancing Translational Sciences (NCATS), 2013).
The campaign covered roughly 420,000 compounds. About 64,000 (15%) were called active. The shares of active, inactive and inconclusive entries below differ from those in the screen. Calls come from the whole dose curve; as a rule, active = well fitted inhibition curve with a large enough effect; inconclusive = small, poorly fitted or top-dose-only effect; inactive = flat fitted curve, though single readings scatter. Potencies of inconclusive entries are left out as doubtful fits.

Test: qHTS for Inhibitors of human tyrosyl-DNA phosphodiesterase 1 (TDP1): qHTS in cells in absence of CPT; note: nearly all actives have a fitted effect of over 55% in size
Conditions: DT40 Tdp1-/- hTDP1 cells, no CPT, ATP luminescence, 48 h; activity change, negative = growth inhibition: at 46.2 µM (top of the series) unless noted
How it was run: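 Stably hTDP1-transfected Tdp1-null chicken DT40 cells were treated with library compounds minus camptothecin and grown for at least 48 hr at 37 °C, after which cellular ATP was quantified by luminescence.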
% is set by controls: 0 for no effect and ±100 for the full control effect; potency is the fitted concentration of half-maximal effect; tags give direction and shape of the fitted curve.

Structure (SMILES)	Potency	activity change, negative = growth inhibition
COc1ccccc1N1CC(C)(C)C(=O)N(C(=O)c2ccc(C)cc2)C1=S	inconclusive [inhibitor, single point]	
NC(=O)c1cc([N+](=O)[O-])ccc1NCc1cnccn1		inactive: -1.42%
Cc1cc(Br)cn2c(Cc3ccccc3)c(-c3ccccc3)nc12	inconclusive [inhibitor, single point]	
CN(C)C(CNC(=O)c1ccco1)c1cccs1 (stereo not given)		inactive: 2.32%
COc1ccc(C(CC(=O)O)NC(=O)c2cc3cc(Br)ccc3oc2=O)cc1OC (stereo not given)		inactive: -12.3%
CCn1cc2c(n1)-c1c(oc(C(=O)Nc3cccc(C)c3C)c1C)CC2	active: 14.6 µM	
COC(=O)/C=C1\SC(=NC(=O)c2cccc(Cl)c2)NC1=O	inconclusive [inhibitor, single point]	
Cc1ccc(CCNC(=O)CCCn2c(=O)c3ccccc3n(Cc3ccccc3C#N)c2=O)cc1	inconclusive [inhibitor, partial curve]	
CCC[C@@H](O)c1cc2cc(OC)c(OC)cc2c(=O)o1	inconclusive [inhibitor, single point]	
CC[C@@]1(C(=O)OC)N[C@H](CN(C)C(=O)Nc2ccc(Cl)cc2)[C@@H]2C(=O)N(C)C(=O)[C@@H]21		inactive: 2.54%
Cc1ccc(SCCC(=O)N(C)CC(=O)Nc2c(C)cccc2C)cc1		inactive: -26.4%
N#Cc1c(NCCCO)nc(-c2ccco2)c2c1CCCC2	inconclusive [inhibitor, single point]	
CCCCCC(=O)N1CC2(C)CN(C(=O)CCCCC)CC(C)(C1)C2=O	inconclusive [inhibitor, single point]	
CO[C@H]1C=CO[C@@]2(C)Oc3c(C)c(O)c4c(O)c(c5c(nc6cc(C)ccn65)c4c3C2=O)NC(=O)/C(C)=C\C=C[C@H](C)[C@H](O)[C@@H](C)[C@@H](O)[C@@H](C)[C@H](OC(C)=O)[C@@H]1C	active: 13.3 µM	
COC(=O)c1ccc(NC(=O)CSc2nc3cccnc3n2C)cc1	active: 16.4 µM	
Cc1ccc(Cl)cc1NC(=O)Cn1c(=O)n(Cc2ccccc2)c(=O)c2oc3ccccc3c21	inconclusive [inhibitor, partial curve]	
COC(=O)CSc1ccc(-c2nc3ccc(C)cc3[nH]2)cn1	inconclusive [inhibitor, single point]	
Cc1ccc(NC(=O)CN(C)CC(=O)Nc2c(C)cccc2C)c(Br)c1		inactive: -8.13%
O=C(O)c1cc(N/N=C/c2ccc(-c3ccc(F)cc3)o2)ccc1Cl		inactive: -0.115%
O=C1CCCCc2sc(Br)c([N+](=O)[O-])c2N1	active: 11.6 µM	
